One experiment has as its system HSkMC. Nature of the experiment: cytotoxicity call (relative viability < 0.9). Conditions: 10 µM.
A further experiment deals with HepG2. In words: cytotoxicity call (relative viability < 0.9). To be noted: 10 µM.
Another experiment concerns S. aureus RN4220. In words: growth inhibition call (relative growth <= 0.2). Conditions: 50 µM.

In the antibiotic and cytotoxicity screens of Wong et al. (2023) one finds cytotoxicity call and growth inhibition call data, which are given here for 25 compounds.

The structures appear in SMILES notation. The list shows a part of the results.

`C[C@@H]1CCCCO[C@H](CN(C)C(=O)Nc2cccc3ccccc23)[C@@H](C)CN([C@@H](C)CO)C(=O)c2cc(NC(=O)CCC(F)(F)F)ccc2O1`: the cytotoxicity call with HSkMC and with HepG2 was “inactive” each time. In addition, the growth inhibition call in the experiment with S. aureus RN4220 was “inactive”.
For `C[C@H]1CCCCO[C@H](CN(C)Cc2ccc(C(F)(F)F)cc2)[C@@H](C)CN([C@@H](C)CO)C(=O)c2cc(NC(=O)c3ccccc3)ccc2O1`, the cytotoxicity call in the experiment with HSkMC and with HepG2 was “inactive” in each case. Moreover, the growth inhibition call in the experiment with S. aureus RN4220 is “inactive”.
For the compound `C[C@@H]1CN([C@@H](C)CO)C(=O)c2cc(NS(C)(=O)=O)ccc2O[C@H]1CN(C)S(=O)(=O)c1ccccc1`, the cytotoxicity call in the experiment with HSkMC and with HepG2 was “inactive” in each case. The growth inhibition call with S. aureus RN4220 was “inactive”.
Turning to `COc1ccc2c3c([nH]c2c1)[C@@H](CO)N(C[C@]13CN(C1)S(=O)(=O)C)C(=O)C1CCOCC1`, the cytotoxicity call in the experiment on HSkMC and with HepG2 was “inactive” in each case. Further, the growth inhibition call in the experiment with S. aureus RN4220 was “inactive”.
With `CCCCCCCCCCCCCCCC(=O)OCC(O)CO` (stereo not given), the cytotoxicity call in the experiment on HSkMC and with HepG2 was “inactive” throughout. In addition, the growth inhibition call with S. aureus RN4220 was “inactive”.
For the compound `O=C(C[C@H]1CC[C@H]2[C@@H](COC[C@@H](O)CN2S(=O)(=O)c2cccc(Cl)c2)O1)NC1Cc2ccccc2C1`, the cytotoxicity call with HSkMC and in the experiment on HepG2 was “inactive” in each case. The growth inhibition call with S. aureus RN4220 is “inactive”.
As to `Cc1ccc(S(=O)(=O)N(C)C[C@@H]2Oc3cc(Br)ccc3S(=O)(=O)N([C@H](C)CO)C[C@H]2C)cc1`, the cytotoxicity call in the experiment with HSkMC and in the experiment with HepG2 was “inactive” each time. Further, the growth inhibition call in the experiment with S. aureus RN4220 is “inactive”.
`COc1ccccc1C#Cc1cnc2c(c1)C(=O)N([C@@H](C)CO)C[C@H](C)[C@@H](CN(C)C(=O)c1ccc3c(c1)OCO3)O2`: the cytotoxicity call in the experiment with HSkMC and with HepG2 was “inactive” in each case. Also, the growth inhibition call in the experiment on S. aureus RN4220 is “inactive”.
Take `Cc1ccc(S(=O)(=O)N(C)C[C@@H]2Oc3c(NC(=O)c4cnccn4)cccc3C(=O)N([C@H](C)CO)C[C@@H]2C)cc1`: the cytotoxicity call in the experiment on HSkMC and in the experiment with HepG2 was “inactive” in each case. Also, the growth inhibition call with S. aureus RN4220 was “inactive”.
For the compound `C[C@@H]1CN([C@@H](C)CO)C(=O)c2cccc(NS(=O)(=O)c3ccc(F)cc3)c2O[C@H]1CN(C)Cc1ccncc1`, the cytotoxicity call with HSkMC and in the experiment with HepG2 was “inactive” in each case. Further, the growth inhibition call in the experiment on S. aureus RN4220 is “inactive”.
Turning to `O=C(C[C@@H]1C[C@H]2c3cc(NC(=O)Nc4ccc(C(F)(F)F)cc4)ccc3O[C@H]2[C@H](CO)O1)NCc1cc(F)ccc1F`, the cytotoxicity call with HSkMC and in the experiment with HepG2 was “inactive” in each case. Besides, in the experiment with S. aureus RN4220, the growth inhibition call is “inactive”.
On to `C[C@H](CO)N1C[C@H](C)[C@H](CN(C)Cc2cccnc2)Oc2cc(C#CCN(C)C)ccc2S1(=O)=O`, for which the cytotoxicity call with HSkMC and in the experiment on HepG2 was “inactive” throughout. Besides, the growth inhibition call in the experiment on S. aureus RN4220 is “inactive”.
On to `CC(C)NC(=O)N(C)C[C@@H]1OCCCC[C@H](C)Oc2ccc(NC(=O)Nc3ccccc3)cc2C(=O)N([C@@H](C)CO)C[C@H]1C`, for which the cytotoxicity call with HSkMC and with HepG2 was “inactive” throughout. In the experiment with S. aureus RN4220, the growth inhibition call was “inactive”.
On to `C[C@@H]1CN([C@@H](C)CO)C(=O)c2cc(C#Cc3ccccc3F)cnc2O[C@H]1CN(C)S(=O)(=O)c1ccccc1F`, for which the cytotoxicity call in the experiment with HSkMC was “inactive”. Moreover, the cytotoxicity call in the experiment with HepG2 is “active”. Moreover, the growth inhibition call in the experiment with S. aureus RN4220 is “inactive”.
`Cc1ccc(S(=O)(=O)N[C@@H]2C=C[C@@H](CC(=O)NCCN3CCCCC3)O[C@@H]2CO)cc1`: the cytotoxicity call with HSkMC and in the experiment with HepG2 was “inactive” throughout. Besides, the growth inhibition call in the experiment on S. aureus RN4220 is “inactive”.
For the compound `COc1ccc(S(=O)(=O)N(C)C[C@@H]2Oc3ccc(NS(=O)(=O)c4c(C)noc4C)cc3CC(=O)N([C@H](C)CO)C[C@@H]2C)cc1`, the cytotoxicity call in the experiment on HSkMC and in the experiment with HepG2 was “inactive” throughout. Further, the growth inhibition call in the experiment with S. aureus RN4220 is “inactive”.
As for `CC[C@@H](C)N1C(=O)CC[C@H]1C(=O)O`, the cytotoxicity call with HSkMC and in the experiment on HepG2 was “inactive” throughout. Besides, the growth inhibition call in the experiment on S. aureus RN4220 was “inactive”.
For `C[C@@H]1CN([C@@H](C)CO)C(=O)c2cc(NC(=O)CCC(F)(F)F)ccc2O[C@@H](C)CCCCO[C@@H]1CN(C)C(=O)Nc1ccc2c(c1)OCO2`, the cytotoxicity call with HSkMC and in the experiment on HepG2 was “inactive” each time. The growth inhibition call with S. aureus RN4220 was “inactive”.
On to `C[C@H](CO)N1C[C@H](C)[C@H](CN(C)Cc2ccc(Oc3ccccc3)cc2)Oc2c(NC(=O)Nc3ccccc3)cccc2C1=O`, for which the cytotoxicity call in the experiment on HSkMC and in the experiment on HepG2 was “inactive” throughout. In addition, the growth inhibition call in the experiment with S. aureus RN4220 is “inactive”.
Take `Cc1noc(C)c1NC(=O)Nc1ccc2c(c1)CC(=O)N([C@@H](C)CO)C[C@@H](C)[C@@H](CN(C)Cc1ccc(-c3ccccc3)cc1)O2`: the cytotoxicity call in the experiment with HSkMC was “inactive”. The cytotoxicity call with HepG2 is “active”. Further, the growth inhibition call with S. aureus RN4220 is “inactive”.
Take `CN(C)CC(=O)N[C@@H]1CC[C@@H](CCNC(=O)C2CC2)O[C@H]1CO`: the cytotoxicity call with HSkMC and in the experiment on HepG2 was “inactive” in each case. Further, in the experiment on S. aureus RN4220, the growth inhibition call is “inactive”.
Take `CC(C)[C@@H](CO)N1C(=O)[C@]2(C)[C@H]3C(=O)OCCC/C=C\[C@H]3O[C@]23C=CCN(c2ccc(Cl)cc2)C(=O)[C@@H]13`: the cytotoxicity call in the experiment on HSkMC and in the experiment on HepG2 was “inactive” in each case. Further, the growth inhibition call with S. aureus RN4220 is “inactive”.
Take `C[C@H](CO)N1C[C@H](C)[C@@H](CN(C)S(=O)(=O)c2cn(C)cn2)OCCCC[C@H](C)Oc2ccc(N(C)C)cc2C1=O`: the cytotoxicity call with HSkMC and with HepG2 was “inactive” in each case. Besides, the growth inhibition call in the experiment with S. aureus RN4220 was “inactive”.
In the case of `COCCNC(=O)C[C@H]1C[C@@H]2c3cc(NC(=O)Nc4ccc(C(F)(F)F)cc4)ccc3O[C@@H]2[C@@H](CO)O1`, the cytotoxicity call in the experiment with HSkMC and with HepG2 was “inactive” each time. In addition, in the experiment with S. aureus RN4220, the growth inhibition call was “inactive”.
With `C[C@@H]1CCCCO[C@@H](CN(C)Cc2ccc(C(=O)Nc3ccccc3N)cc2)[C@@H](C)CN([C@H](C)CO)C(=O)c2cc(NS(=O)(=O)c3ccc(F)cc3)ccc2O1`, the cytotoxicity call in the experiment on HSkMC (human skeletal muscle cells) and in the experiment with HepG2 was “inactive” each time. The growth inhibition call with S. aureus RN4220 is “inactive”.
